The structures appear in SMILES notation. The list shows a part of the results. Most values come without repeats; read them as rough.

Some test systems named below: MZ2-MEL; MeWo; RPMI7951; RVH-421; SkMel28; SkMel2; SkMel30; UACC62; WM115; WM1716; WM1745; WM3526; WM3619; WM451Lu; SkMel5; UACC257.
Common to all, as to assay: cell count relative to DMSO control; melanoma cells; higher = more viable cells
Details in all cases: library dose: low library concentration; 72 h
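Also: cell number obtained by counting DAPI-stained nuclei in high-throughput microscope images with image analysis software, screen run in 1,536-well plates.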

As to `O=C(Nc1cc(C(F)(F)F)cc(C(F)(F)F)c1)c1cc(Cl)ccc1O` + C[C@]1(O)C[C@@H](c2nc(-c3ccc4ccc(-c5ccccc5)nc4c3)c3c(N)nccn32)C1 [OSI906] (first compound 0.016 µM, partner dose 0.4 µM), the cell count with MZ2-MEL stood at 88.4%; with MeWo it was 97.6%; in the assay on RPMI7951 it was 95%; in the assay on RVH-421 it was 101%; in the assay on SkMel28 it was 77.9%; in the assay on SkMel2, 85.5%. Moreover, the cell count came to 80.6% in the assay with SkMel30; 78.9% in the assay with UACC62; 88.6% in the assay with WM115; 102% in the assay on WM1716; 77.4% with WM1745; 104% in the assay with WM3526. The cell count with WM3619 was 97.9%; in the assay with WM451Lu it was 99.6%.
Turning to `O=C(Nc1cc(C(F)(F)F)cc(C(F)(F)F)c1)c1cc(Cl)ccc1O` + CC(C)C[C@H](NC(=O)[C@H](Cc1ccccc1)NC(=O)c1cnccn1)B(O)O [Bortezomib] (first compound 0.016 µM, partner dose 0.001 µM), the cell count turned out to be 97.3% in the assay with MZ2-MEL; 82.2% with MeWo; 111% with RPMI7951; 104% in the assay with RVH-421; 85.6% in the assay on SkMel28; 99.3% with SkMel2. For the same molecule, the cell count in the assay on SkMel30 is 104%; in the assay on UACC62 it was 85.2%; in the assay on WM115, 86.9%; with WM1716 it was 80.6%; in the assay with WM1745, 75.5%; in the assay with WM3526, 103%. The cell count was 48.2% with WM3619 and 84.5% with WM451Lu.
For the molecule `O=C(O)[C@@H]1[O][Sb](=[O])([O][Sb]2(=[O])[O][C@H]([C@H](O)CO)[C@H](O)[C@H](C(=O)O)[O]2)[O][C@H]([C@H](O)CO)[C@@H]1O` (some centres undefined) [stibogluconate] + C=C(c1ccc(C(=O)O)cc1)c1cc2c(cc1C)C(C)(C)CCC2(C)C [Bexarotene] (first compound 2 µM, partner dose 2 µM), the cell count with MZ2-MEL was 91.1%; with MeWo it was 96.1%; in the assay on RPMI7951, 78.8%; in the assay on RVH-421 it was 106%; in the assay on SkMel28, 77.1%; in the assay on SkMel2, 92.9%. Moreover, the cell count in the assay with SkMel30 stood at 75.4%; in the assay on UACC62, 81.5%; with WM115, 101%; with WM1716 it was 85.8%; in the assay with WM1745, 78.2%; in the assay on WM3526 it was 96.4%. Moreover, the cell count worked out at 96.7% in the assay with WM3619 and 78.8% with WM451Lu.
Turning to `O=C(Nc1cc(C(F)(F)F)cc(C(F)(F)F)c1)c1cc(Cl)ccc1O` + CCCS(=O)(=O)Nc1ccc(F)c(C(=O)c2c[nH]c3ncc(Cl)cc23)c1F [PLX4720] (first compound 0.016 µM, partner dose 0.08 µM), the cell count in the assay with MZ2-MEL turned out to be 88.3%; in the assay with MeWo it was 91%; in the assay with RPMI7951, 109%; in the assay with RVH-421 it was 82.2%; with SkMel28, 90.7%; with SkMel2 it was 99.6%. Besides, the cell count was determined as 87.6% in the assay on SkMel30; 77.1% in the assay with UACC62; 102% in the assay with WM115; 123% in the assay with WM1716; 105% in the assay on WM1745; 84% with WM3526. The values for the cell count with WM3619 and with WM451Lu were 98.7% and 104%, respectively.
As for `O=C(Nc1cc(C(F)(F)F)cc(C(F)(F)F)c1)c1cc(Cl)ccc1O` + COc1ccc(C2=N[C@@H](c3ccc(Cl)cc3)[C@@H](c3ccc(Cl)cc3)N2C(=O)N2CCNC(=O)C2)c(OC(C)C)c1 [Nutlin-3] (first compound 0.016 µM, partner dose 0.1 µM), the cell count in the assay with MZ2-MEL was found to be 96.4%; in the assay on MeWo, 111%; with RPMI7951, 123%; in the assay with RVH-421 it was 94.7%; in the assay on SkMel28 it was 122%; in the assay on SkMel2 it was 95.2%. In addition, the cell count in the assay with SkMel30 turned out to be 125%; in the assay with UACC62, 114%; in the assay on WM115, 104%; with WM1716 it was 95.5%; with WM1745 it was 121%; in the assay with WM3526 it was 117%. The cell count with WM3619 came to 106%; with WM451Lu, 98.8%.
With `O=C(O)c1ccc2c(c1)nc(Nc1cccc(Cl)c1)c1ccncc12` + Cn1c(Nc2ccc(C(F)(F)F)cc2)nc2cc(Oc3ccnc(-c4ncc(C(F)(F)F)[nH]4)c3)ccc21 [CHIR265] (first compound 0.4 µM, partner dose 0.08 µM), the cell count with MZ2-MEL turned out to be 74.3%; in the assay on MeWo, 60.9%; in the assay on RPMI7951, 64.6%; in the assay on RVH-421, 75.2%; with SkMel28, 73.2%; in the assay with SkMel2, 75.9%. The cell count with SkMel30 came out at 59%; with UACC62, 63.4%; with WM115, 51.4%; in the assay on WM1716, 91%; in the assay on WM1745 it was 61.4%; with WM3526, 54.6%. Besides, the cell count in the assay on WM3619 came to 68.6%; with WM451Lu it was 80.3%.
Take `O=C(Nc1ccccc1)c1cc([N+](=O)[O-])ccc1Cl` + O=C1NC(=O)/C(=C/c2ccc(-c3ccc(F)cc3O)o2)S1 [AS252424] (first compound 2 µM, partner dose 1 µM): the cell count came out at 105% in the assay with MZ2-MEL; 90.8% with MeWo; 137% with RPMI7951; 88.8% in the assay with RVH-421; 95.6% in the assay on SkMel28; 107% in the assay on SkMel30. The cell count in the assay with SkMel5 came out at 111%; in the assay with UACC257, 103%; in the assay on UACC62, 72.2%; in the assay with WM115, 110%; in the assay on WM1716, 104%; in the assay on WM1745, 94.4%. Moreover, the cell count turned out to be 103% with WM3526, 92% in the assay with WM3619 and 111% with WM451Lu.
As to `Cn1nnc2c(C(N)=O)ncn2c1=O` [temozolomide] + Oc1cc(-c2nc(-c3ccccc3)[nH]c2-c2ccncc2)ccc1Cl [L779450] (first compound 2 µM, partner dose 0.2 µM), the cell count in the assay with MZ2-MEL was 77.6%; in the assay with MeWo, 91%; with RPMI7951, 96.6%; with RVH-421, 84.9%; in the assay on SkMel28, 76.2%; in the assay with SkMel30, 86.8%. The cell count in the assay with SkMel5 worked out at 105%; with UACC257 it was 108%; with UACC62, 61.6%; with WM115 it was 80.9%; in the assay on WM1716, 85.8%; with WM1745 it was 104%. For the same molecule, the cell count in the assay on WM3526 worked out at 87.8%; in the assay with WM3619, 115%; with WM451Lu it was 103%.
As to `O=C(Nc1ccccc1)c1cc([N+](=O)[O-])ccc1Cl` + COc1ccc2c(c1)CCC1C2CCC2(C)C(NCCCCCCN3C(=O)C=CC3=O)CCC12 [U73122] (first compound 2 µM, partner dose 0.4 µM), the cell count with MZ2-MEL amounted to 95.5%; in the assay on MeWo, 95.3%; in the assay with RPMI7951, 94.6%; in the assay with RVH-421 it was 89%; in the assay on SkMel28, 98.7%; in the assay on SkMel30, 106%. The cell count with SkMel5 was 84.6%; with UACC257, 87.6%; in the assay on UACC62 it was 84.5%; in the assay on WM115, 80.7%; with WM1716, 91.1%; in the assay on WM1745 it was 89.6%. Also, the results for the cell count in the assay with WM3526, in the assay on WM3619 and in the assay with WM451Lu were 108%, 96% and 118%, respectively.
